# The campaign covered roughly 420,000 compounds. About 50,000 (12%) were called active. The inconclusive results got no clear call from the source; some entries with a clear call stand among them for comparison. Calls come from the whole dose curve; as a rule, active = well fitted inhibition curve with a large enough effect; inconclusive = small, poorly fitted or top-dose-only effect; inactive = flat fitted curve, though single readings scatter. Potencies of inconclusive entries are left out as doubtful fits.
# Experiment: qHTS for Inhibitors of human tyrosyl-DNA phosphodiesterase 1 (TDP1): qHTS in cells in presence of CPT; note: nearly all actives have a fitted effect of over 55% in size
# Conditions: chicken DT40 Tdp1-/-;hTDP1 cells + 20 nM CPT, ATP luminescence, 48 h; activity change, negative = growth inhibition: at 46.2 µM (top of the series) unless noted
# Outline: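 Chicken DT40 Tdp1-/- cells complemented with human TDP1, 400 cells/well, exposed to compounds plus 20 nM camptothecin for at least 48 h at 37 C; viability read as ATP content by CellTiter-Glo luminescence.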
# % is set by controls: 0 for no effect and ±100 for the full control effect; potency is the fitted concentration of half-maximal effect; tags give direction and shape of the fitted curve.
SMILES,Potency,"activity change, negative = growth inhibition"
Cc1cc2c(cc1S(=O)(=O)N(C)C1CCCCC1)OCC(=O)N2,"inconclusive [inhibitor, partial curve]",–
O=C(NCc1ccco1)c1cccc(S(=O)(=O)N2CCc3ccccc32)c1,"inconclusive [inhibitor, single point]",–
CC(=O)c1cccc(NS(=O)(=O)c2ccc3[nH]c4c(c3c2)CCCCCC4)c1,"inconclusive [inhibitor, single point]",–
Oc1ccccc1C1Nc2cccc3cccc(c23)N1,"inconclusive [inhibitor, single point]",–
COc1cccc(NC(=O)CCC2CCN(C(=O)C3CC=CCC3)CC2)c1 (stereo unspecified),"inconclusive [inhibitor, single point]",–
CCOc1cc(C)c(C(C)C)cc1S(=O)(=O)NCc1ccccn1,"inconclusive [inhibitor, single point]",–
O=C(COC(=O)c1ccccc1C(=O)c1ccccc1)NCc1ccc(F)cc1,"inconclusive [inhibitor, single point]",–
COc1ccc2c(c1)c1c(c(=O)n(-c3ccc(OC)c(OC)c3)c(=O)n1Cc1ccccc1C)n2C,inactive,–
Cc1ccc(S(=O)(=O)c2nc(-c3cccs3)oc2N2CCCCC2)cc1,"inconclusive [inhibitor, single point]",–
COc1cccc(C(=O)NC(C)C(c2cccs2)N2CCN(C)CC2)c1 (stereo unspecified),"inconclusive [inhibitor, single point]",–
CC(Sc1nnc(C2CC2)n1C)C(=O)Nc1ccc(N2CCOCC2)cc1 (stereo unspecified),inactive,–
COC(=O)c1ccc(/C=C/C(=O)OCC(=O)Nc2sccc2C(N)=O)cc1,"inconclusive [inhibitor, single point]",–
CCOC(=O)[C@]12CCCC=C1N(Cc1ccco1)C(=O)[C@H](CC(=O)NCCC(C)C)C2,"inconclusive [inhibitor, single point]",–
Cc1cccc(NC(=O)C(=O)NNC(=O)c2ccc(C(C)(C)C)cc2)c1,"inconclusive [inhibitor, single point]",–
COC(=O)c1ccccc1SCC(=O)Nc1ccc(N2CCOCC2)cc1,inactive,–
COc1ccc(C(=O)O/N=C(\N)c2ccncc2)cc1OC,"inconclusive [inhibitor, partial curve]",–
CCC(C)[C@H](NC(=O)[C@H](Cc1ccccc1)n1c(=O)[nH]c2ccccc2c1=O)C(=O)N1CCC[C@@H]1C(=O)O (stereo partly specified),inactive,–
CCOC(=O)N1CCN(C(=O)CCc2ccccc2)CC1,inactive,–
Oc1ccc(Cl)cc1-c1cc(C(F)(F)C(F)F)nc(-c2ccccc2)n1,active: 29.1 µM,–
C/C(=N\Nc1ccccn1)c1ccc(OC(F)F)cc1,"inconclusive [inhibitor, single point]",–
O=C(O)CNS(=O)(=O)c1ccc(Br)s1,inactive,–
CN(Cc1ccccc1)C(=O)CN1C(=O)CSc2ccc(S(=O)(=O)N3CCOCC3)cc21,"inconclusive [inhibitor, single point]",–
CN1CCN(c2ncnc3c2ncn3[C@H]2CN(Cc3ccc(Cl)cc3)C[C@@H](CO)O2)CC1,"inconclusive [inhibitor, partial curve, poor fit]",–
CCCCCc1ccc2cc(C#N)ccc2n1,inactive,–

SMILES,Potency,"activity change, negative = growth inhibition"
C/C(=N\NC(=O)Cn1c(C)nc2ccccc21)c1cccs1,active: 14.6 µM,–
COc1cc(NC(=O)Cc2ccccc2)ccc1NC(=O)c1ccco1,inactive,–
CCc1ccc(-c2cn3c(n2)sc2cc(C(=O)NCCc4ccc(OC)cc4OC)ccc23)cc1,active: 23.1 µM,–
COC(=O)c1ccc(C23CC4(C2)[C@H](CN(CC2CCCCC2)[C@@H]4c2ccccc2)C3c2ccc(Cl)nc2)cc1 (stereo partly specified),"inconclusive [inhibitor, single point]",–
CCN1C[C@@H]2[C@@H]3C(=O)N(Cc4ccccc4)C(=O)[C@@H]3[C@](C)(C1=O)N2C(=O)c1ccc(Cl)c(Cl)c1,"inconclusive [inhibitor, single point]",–
COc1cc(C)ccc1S(=O)(=O)N1CCN(C23CC4CC(CC(C4)C2)C3)CC1,"inconclusive [inhibitor, single point]",–
CCN1C(c2ccccc2)=C(c2ccccc2)S/C1=C\C=C1/SC(=S)N(C)C1=O,active: 13 µM,–
CCOC(=O)CON1C(=O)C(C)(C)N(OCC(=O)OCC)C(=O)C1(C)C,inactive,–
O=C(c1noc2c1CCCCC2)N1CCN(c2ccc(Cl)cc2)CC1,"inconclusive [inhibitor, single point]",–
CC(=O)Nc1cc(-c2ccccc2F)cn2c(-c3ccccc3)cnc12,active: 16.4 µM,–
CCOC(=O)NN=C1CCC(c2ccccc2)CC1 (stereo unspecified),"inconclusive [inhibitor, partial curve]",–
Cc1ccc2c(c1)C(=O)C(=O)N2CC1COc2ccccc2O1 (stereo unspecified),active: 2.31 µM,–
COc1ccc(C(=O)OCc2cc(=O)n3ccsc3n2)cc1F,inactive,–
CCn1nc(C(=O)OC(C(=O)c2c[nH]c3ccccc23)c2ccccc2)c2ccccc2c1=O (stereo unspecified),"inconclusive [inhibitor, single point]",–
COc1ccccc1NC(=O)/C(=C\c1cccs1)NC(=O)c1ccco1,inactive,–
COCCSc1ccccc1C(=O)NCc1ccc(S(N)(=O)=O)cc1,–,inconclusive: -30.3% [inhibitor]
CCOC(=O)c1sc(NC(=O)CSc2n[nH]c(-c3ccncc3)n2)c(C#N)c1C,"inconclusive [inhibitor, partial curve]",–
CC(C)CN=C(NS(=O)(=O)c1ccccc1)C(Cl)(Cl)Cl,active: 4.61 µM,–
O=S(=O)(c1ccccc1)[C@@]1(c2ccccc2)C[C@@H]2ON=C(c3cccc(-c4ccccc4)c3)[C@@H]2C1,"inconclusive [inhibitor, partial curve, poor fit]",–
Oc1ccc(N=Cc2ccc(-c3cccs3)s2)cc1,"inconclusive [inhibitor, single point]",–
C#CC(C)(C)NS(=O)(=O)c1cc(-c2nnc(Nc3ccc(C)cc3)c3ccccc23)ccc1C,active: 20.6 µM,–
COc1ccc(P(=O)(COc2ccc([N+](=O)[O-])cc2)c2ccc(OC)cc2)cc1,"inconclusive [inhibitor, single point]",–
c1ccc(Cn2nnnc2C(c2ccccc2)N2CCN(Cc3ccncc3)CC2)cc1 (stereo unspecified),"inconclusive [inhibitor, single point]",–
COc1ccc(CNC(=O)C(c2ccccc2F)N(C(=O)c2csnn2)C2CC2)cc1 (stereo unspecified),active: 20.6 µM,–

SMILES,Potency,"activity change, negative = growth inhibition"
CC(C)Cc1nc2ccccc2[nH]1,inactive,–
C=CCOc1ccc(/C=N/Nc2ccccn2)cc1OC,inactive,–
O=C(CNCCC1=CCCCC1)Nc1ccccc1N1CCCCC1,"inconclusive [inhibitor, single point]",–
COc1ccc(CNC(=O)C2CCN(c3cc(C(=O)Nc4cccc(OC)c4)ccn3)CC2)cc1,"inconclusive [inhibitor, partial curve]",–
C[C@H](CO)N1C[C@H](C)[C@H](CN(C)C(=O)c2ccc(N3CCN(C)CC3)cc2)OCc2cnnn2CCCC1=O,inactive,–
COc1ccc(-n2cc(CNCCc3cscn3)c(-c3ccccc3Cl)n2)cc1,active: 16.4 µM,–
CCCCN1C(=S)SC(C)(C)C1/[N+]([O-])=C/c1ccc(S(=O)(=O)NC)cc1 (stereo unspecified),inactive,–
CCCC(c1nnnn1C(C)(C)CC)N(CCCO)Cc1cc2cc(C)cc(C)c2[nH]c1=O (stereo unspecified),"inconclusive [inhibitor, single point]",–
Cc1c(C(=O)OCC(=O)NCc2ccco2)cccc1[N+](=O)[O-],inactive,–
CCCCCSc1nc2c(c(=O)[nH]c(=O)n2C)n1CCc1ccccc1,"inconclusive [inhibitor, single point]",–
Nc1cc(-c2ccc(Cl)cc2)nn1S(=O)(=O)c1cccc2nsnc12,"inconclusive [inhibitor, single point]",–
O=C(NC1CCCCC1)c1cc(Cl)ccc1[N+](=O)[O-],inactive,–
O=C(Nc1ccc(Cl)c(Cl)c1)c1ccc(Cl)c(Cl)c1,"inconclusive [inhibitor, partial curve]",–
CSc1nc(C)cc(SCC(=O)Nc2ccc(Cl)cc2Cl)n1,inactive,–
CC1(CCc2ccccc2)NC(=O)N(CC(=O)O)C1=O (stereo unspecified),"inconclusive [inhibitor, single point]",–
O=S1(=O)N[C@@H](Cc2ccccc2)COc2cccc(N3CCN(Cc4ccccc4F)CC3)c21,"inconclusive [inhibitor, single point]",–
CCC1CN(C(=O)Nc2ccc(C)cc2)c2cc(C)ccc2O1 (stereo unspecified),"inconclusive [inhibitor, single point]",–
O=C(NCC1(c2ccccc2)CCCC1)c1ccccc1,active: 14.6 µM,–
C=CCNC(=O)NC(=O)COC(=O)CNS(=O)(=O)c1ccc(F)c(F)c1F,inactive,–
COc1ccc(-c2nc(CS(=O)(=O)CC(=O)NCc3cccc(Br)c3)c(C)o2)cc1,"inconclusive [inhibitor, single point]",–
CC(C)CCNC(=O)CCc1nnc2ccc(N3CCC(C)CC3)nn12,inactive,–
COc1ccc(/C=C(\C#N)C(=O)OCC(=O)NCc2ccccc2OC)cc1,inactive,–
Cc1ccc(C(=O)OCC(=O)Nc2cccc(S(=O)(=O)N3CCCCC3)c2)s1,"inconclusive [inhibitor, partial curve]",–
